Source: PubChem BioAssay AID720709 (National Center for Advancing Translational Sciences (NCATS), 2013)
The whole screen tested about 360,000 compounds, of which about 520 (0.14%) were called active. The shares of active, inactive and inconclusive entries below differ from those in the screen. Calls come from the whole dose curve; as a rule, active = well fitted inhibition curve with a large enough effect; inconclusive = small, poorly fitted or top-dose-only effect; inactive = no such curve, though single readings can be large or run the other way. A potency beside an inconclusive call is a rough fit, not a confirmed value.

Target: Rap guanine nucleotide exchange factor 3 (Homo sapiens) (UniProt O95398)
UniProt O95398, sequence (O95398 whole entry, looked up): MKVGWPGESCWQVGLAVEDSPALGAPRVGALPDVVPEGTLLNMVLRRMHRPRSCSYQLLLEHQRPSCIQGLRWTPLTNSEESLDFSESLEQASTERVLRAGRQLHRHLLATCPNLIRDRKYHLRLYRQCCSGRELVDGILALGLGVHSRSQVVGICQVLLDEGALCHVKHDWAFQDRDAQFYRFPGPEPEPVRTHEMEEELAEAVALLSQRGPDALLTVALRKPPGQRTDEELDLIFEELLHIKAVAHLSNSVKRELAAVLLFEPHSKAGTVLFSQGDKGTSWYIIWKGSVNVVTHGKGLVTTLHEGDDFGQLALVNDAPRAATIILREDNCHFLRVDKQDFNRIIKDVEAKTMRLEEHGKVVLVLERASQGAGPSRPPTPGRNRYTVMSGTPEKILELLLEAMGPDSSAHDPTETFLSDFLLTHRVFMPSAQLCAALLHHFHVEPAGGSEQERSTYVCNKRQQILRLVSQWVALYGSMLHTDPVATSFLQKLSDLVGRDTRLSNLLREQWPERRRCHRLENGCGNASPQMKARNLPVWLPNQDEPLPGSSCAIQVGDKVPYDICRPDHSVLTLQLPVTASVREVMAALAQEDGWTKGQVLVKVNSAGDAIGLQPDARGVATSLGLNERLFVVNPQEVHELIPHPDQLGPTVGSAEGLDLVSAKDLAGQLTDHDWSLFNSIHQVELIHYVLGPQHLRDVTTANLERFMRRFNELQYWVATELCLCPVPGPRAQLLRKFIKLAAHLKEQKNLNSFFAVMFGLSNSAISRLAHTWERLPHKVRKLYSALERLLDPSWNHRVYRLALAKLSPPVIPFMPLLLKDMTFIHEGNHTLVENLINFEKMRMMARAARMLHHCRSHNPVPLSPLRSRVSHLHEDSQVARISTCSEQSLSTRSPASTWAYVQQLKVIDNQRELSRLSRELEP
Experiment: qHTS for Antagonist of cAMP-regulated guanine nucleotide exchange factor 3 (EPAC1): primary screen; note: nearly all actives have a fitted effect of over 50% in size;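 for activity change, negative = inhibition: plate controls were vehicle for no effect and positive control for full effect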
Conditions: EPAC1 GEF assay, Rap1b-BODIPY-GDP exchange fluorescence; activity change, negative = inhibition: at 115 µM (top of the series)
Potency is the fitted concentration of half-maximal effect; tags give direction and shape of the fitted curve.

Potency, inconclusive:
COc1ccc(C(=O)/C=C/c2ccc(OCc3ccccc3)cc2)cc1CSCC(=O)O 17.8 µM [inhibitor, full curve]
O=C(NNc1ccc([N+](=O)[O-])cc1)c1ccccc1Cl 100 µM [inhibitor, single point]
CCc1ccc2c(c1)C(NC(C)=O)C(=O)N2CCN1CCOCC1 (stereo not given) 56.2 µM [inhibitor, partial curve, poor fit]
COCCNC(=O)C1(C)CCCN(Cc2sc(C)nc2C)C1 (stereo not given) 100 µM [inhibitor, partial curve, poor fit]
O=C(COC(=O)c1cc([N+](=O)[O-])ccc1N1CCOCC1)c1ccccc1 89.1 µM [inhibitor, single point]
COc1ccc(CCNc2oc(-c3ccc(C)cc3)nc2C#N)cc1OC 44.7 µM [inhibitor, partial curve]
CS(=O)(=O)C1=NSC2=NC(=O)/C(=C\c3ccc(OS(=O)(=O)c4ccccc4)cc3)C(=N)N21 56.2 µM [inhibitor, partial curve, poor fit]
Cc1ccc(C(C(=O)Nc2ccc3c(c2)OCO3)N(C)C(=O)/C=C\c2ccc3c(c2)OCO3)cc1 (stereo not given) 39.8 µM [inhibitor, single point]
CC1=C(C(=O)N2CCOCC2)CC(CC(=O)NCc2ccco2)C(=O)N1Cc1ccccc1 (stereo not given) 100 µM [inhibitor, single point]
O=C(OCC(=O)N1CCN(C(=O)c2ccco2)CC1)c1cc(-c2ccco2)nc2ccccc12 79.4 µM [inhibitor, partial curve]
COc1cc(OC)cc(C(=O)N/N=C\c2ccoc2)c1 44.7 µM [inhibitor, partial curve, poor fit]
CC[C@@H]1C(c2ccc(F)cc2)=NN(c2ccccc2)[C@H]1C(=O)N1CCOC1=O 70.8 µM [inhibitor, single point]
CC(=O)N1c2ccc(S(=O)(=O)N3CCCC(C(=O)N4CCC(C)CC4)C3)cc2CC1C (stereo not given) 39.8 µM [inhibitor, single point]
Nc1c(C(O)(C(F)(F)F)C(F)(F)F)cc(C(O)(C(F)(F)F)C(F)(F)F)c2ccccc12 35.5 µM [inhibitor, full curve, poor fit]
Cc1ccc(N2C(=O)c3ccccc3C2Nc2ccccc2F)nc1 (stereo not given) 39.8 µM [inhibitor, single point]
CCOC(=O)[C@]12CCC=C1N(Cc1ccco1)C(=O)[C@H](CC(=O)NCc1cccc(C(F)(F)F)c1)C2 70.8 µM [inhibitor, partial curve]
Cc1ccccc1-n1nc2c(c1NC(=O)c1ccc(Br)o1)CSC2 70.8 µM [inhibitor, single point]
CCOc1ccc(-n2nnc3c(=O)n(CC(=O)Nc4cc(C)on4)cnc32)cc1 14.1 µM [inhibitor, full curve]
COc1ccc(C)cc1NC(=O)c1nn(-c2ccccc2)cc1OC 100 µM [inhibitor, single point]
FC(F)(F)c1cc(CCN2CCNC[C@@H]2CC2CCCCC2)cc(C(F)(F)F)c1 17.8 µM [inhibitor, partial curve]
Cc1onc(-c2ccccc2Cl)c1C(=O)NCCn1c(C)cc2ccccc21 31.6 µM [inhibitor, single point]
COc1cc(C(=O)OC(C)C(=O)N2CCCC2)cc2c1OCCO2 (stereo not given) 89.1 µM [inhibitor, single point]
CCOC(=O)c1c(-c2ccc(-c3ccccc3)cc2)csc1NC(=O)C1C2CCC(O2)C1C(=O)O (stereo not given) 63.1 µM [inhibitor, partial curve, poor fit]
Cc1ccc(S(=O)(=O)N2CCCCC2)cc1NC(=O)COC(=O)Cc1c(F)cccc1Cl 14.1 µM [inhibitor, partial curve]
Cc1[nH]c2ccccc2c(=O)c1C(=O)/C=C/c1ccccc1 10 µM [inhibitor, full curve]
CC(C)N(Cc1nc(COc2ccccc2)no1)Cc1nccn1C 44.7 µM [inhibitor, partial curve]
O=C(O)C(Cc1ccccc1)N1C(=O)/C(=C/c2cccnc2)SC1=S (stereo not given) 100 µM [inhibitor, single point]
CC1(C)C2CCC1(C)C(NC(=O)/C=C/c1ccccc1)C2 (stereo not given) 39.8 µM [inhibitor, partial curve, poor fit]
O=C(O)c1cc(NC(=O)c2ccccc2[N+](=O)[O-])ccc1O 35.5 µM [inhibitor, partial curve, poor fit]
Cn1ncc([N+](=O)[O-])c1C(=O)N/N=C/c1c[nH]c2ccccc12 44.7 µM [inhibitor, single point]
CN1CCN(S(=O)(=O)c2cccc(C(=O)Nc3nc(-c4ccccc4)cs3)c2)CC1 20 µM [inhibitor, full curve, poor fit]
CCc1nnc(NS(=O)(=O)c2ccc(NC(=O)c3ccccc3C)cc2)s1 3.16 µM [inhibitor, full curve, poor fit]
O=S(=O)(Nc1cccc(-c2cn3c(n2)SCC3)c1)c1ccc(F)cc1F 79.4 µM [inhibitor, partial curve]
COc1ccc(CCNC(=O)CS(=O)(=O)Cc2nc(-c3ccc(C)cc3)oc2C)cc1OC 79.4 µM [inhibitor, single point]
CCOc1ccc(-n2cc(-c3ccccc3)c3c(=S)nc[nH]c32)cc1 89.1 µM [inhibitor, single point]
C=CCc1cccc2cc(C(=O)Nc3ccc(NC(C)=O)cc3)c(=O)oc12 89.1 µM [inhibitor, single point]
COc1cccc(/C=N/NC(=O)c2cc(-c3ccccn3)nc3ccccc23)c1O 100 µM [inhibitor, single point]
COC(=O)C1=CN(Cc2cccs2)C=C(C(=O)OC)C1c1cccc(Cl)c1 28.2 µM [inhibitor, full curve]
Cc1ccc(/C(O)=C2/C(=O)C(=O)OC2c2ccc(Cl)cc2)cc1 (stereo not given) 79.4 µM [inhibitor, single point]
Cc1cc(NC2=CC(=O)C(=O)c3ccccc32)no1 50.1 µM [inhibitor, partial curve]
Cc1cc(C)c2nc(NC(=O)C3CC(=O)N(Cc4ccco4)C3)sc2c1 (stereo not given) 50.1 µM [inhibitor, partial curve]
COc1ccc(/C=C2\C(=O)N(c3c(Cl)cc(Cl)cc3Cl)N=C2NC(=O)c2cccc([N+](=O)[O-])c2)cc1 89.1 µM [inhibitor, single point]
CC(C)CCNC(=O)C(CC(C)C)N(Cc1ccc2c(c1)OCO2)C(=O)c1snc(C(N)=O)c1N (stereo not given) 50.1 µM [inhibitor, single point]
Cc1ccccc1NC(=O)CSc1nnc(-c2ccco2)c(-c2ccco2)n1 39.8 µM [inhibitor, partial curve]
CCOc1ccc(N2CC(C(=O)Nc3ccccc3N3CCOCC3)CC2=O)cc1 (stereo not given) 8.91 µM [inhibitor, full curve, poor fit]

Potency, inactive:
O=C(/C=C/c1ccc2c(c1)OCCCO2)c1ccccc1O
COc1ccc(-c2cc3c(nn2)-c2ccccc2C3=O)cc1
CCOC(=O)N(C)c1c(CC)nc2c(OCc3ccccc3C)cccn12
O=C(CSc1nc2cc(Cl)c(Cl)cc2[nH]1)c1ccc2c(c1)OCO2
COc1ccccc1-n1c(SCC(=O)Nc2ccc(C)cc2)nc(O)cc1=O
Cc1ccsc1/C=N/Nc1nc2ccccc2[nH]1
Oc1ccc(-c2cnc3c(Nc4cccc(OC(F)(F)C(F)F)c4)nccn23)cc1
COc1ccc2c(=O)c3c(=O)n(CCc4ccccc4)c(C(C)C)nc3oc2c1
Cc1ccc(SCC(=O)OCC(=O)N(C)CC(=O)Nc2ccc(F)cc2)cc1C
O=C(O)C(Cc1ccccc1)N1C(=O)/C(=C/c2cccs2)SC1=S (stereo not given)
NC(=O)CC(NC(=O)Cc1cccc2ccccc12)c1ccc(N2CCN(c3ccccn3)CC2)c([N+](=O)[O-])c1 (stereo not given)
Fc1ccc(C2=CC(c3ccc(Br)o3)n3ncnc3N2)cc1 (stereo not given)
Nc1ccc2c(S(=O)(=O)O)cccc2c1S(=O)(=O)O
C(=N\Nc1ccccn1)/c1ccc(N2CCOCC2)cc1
CCSc1ccc(/C(N)=N/OC(=O)c2cccs2)cn1

Potency, active:
CCOc1cc(/C=N/NC(=O)c2ccc(-c3csc(Nc4ccc(C)cc4)n3)cc2)ccc1OCC(=O)O 39.8 µM
CC(=O)C1=C(C)OC2(O)c3ccccc3C(=O)C12O (stereo not given) 79.4 µM

Activity change, negative = inhibition, inconclusive:
CCOc1ccc(-n2nnc3c(=O)n(CC(=O)N4CCCc5ccccc54)cnc32)cc1 -9.99% [inhibitor]
COc1cccc(CNc2ccccc2O)c1OCc1ccccc1F -31.6% [inhibitor]
Cc1ccc(NC(=O)C2CCC2)cc1S(=O)(=O)N1CCCCCC1 -12.9% [inhibitor]
